Assay results from the supplement of paper PMC12067230.
The data scatter; read single values as rough.

Experiment: amyloid nucleation score relative to library mode (yeast Sup35 reporter selection) (log enrichment difference); higher = more amyloid nucleation; sequences are the first 22 residues of the Bri2 peptide extended by up to 12 random residues
Settings: random library (experiment): 1;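 active = nucleation score significantly above 0 at FDR 0.05; inactive = not significantly above 0 or absent from output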
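Further: [psi-pin-] Saccharomyces cerevisiae expressing SupN fusions, induced by 100 µM Cu2SO4, selected 7 d at 30 °C without adenine and uracil, scored by deep sequencing of output versus input.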

Sequence | amyloid nucleation score
EASNCFAIRHFENKFAVETLICQTARKPEGLHRR | inactive
EASNCFAIRHFENKFAVETLICRVVCGSIMSCPN | inactive
EASNCFAIRHFENKFAVETLICWLACVPMTHTDA | inactive
EASNCFAIRHFENKFAVETLICATLMERLRCCSR | inactive
EASNCFAIRHFENKFAVETLICVKSEMSSCNILL | 2.02
EASNCFAIRHFENKFAVETLICKCCRLFILLESV | inactive
EASNCFAIRHFENKFAVETLICCLPGRR | 7.82
EASNCFAIRHFENKFAVETLICAFLTVRSNESKV | 2.18
EASNCFAIRHFENKFAVETLICKYGSLEGCEPEM | inactive
EASNCFAIRHFENKFAVETLICNLVCENMMREIL | 3.96
EASNCFAIRHFENKFAVETLICLPSVRGLYIPTS | -0.916
EASNCFAIRHFENKFAVETLICYWFTLSPIGRVW | inactive
EASNCFAIRHFENKFAVETLICRQERCFGFWSR | 4.59
EASNCFAIRHFENKFAVETLICYFDLHN | 7.99
EASNCFAIRHFENKFAVETLICTVYYVFGMRLVL | inactive
EASNCFAIRHFENKFAVETLICNAYEPVLWLVRA | -0.219
EASNCFAIRHFENKFAVETLICMCS | inactive
EASNCFAIRHFENKFAVETLICVYRSSCSNNEWM | inactive
EASNCFAIRHFENKFAVETLICAVGVV | -0.309
EASNCFAIRHFENKFAVETLICAYKSL | 0.492
EASNCFAIRHFENKFAVETLICVLQPRLGSTERQ | 6.81
EASNCFAIRHFENKFAVETLICISCRMRCWSLAF | inactive

Sequence | amyloid nucleation score
EASNCFAIRHFENKFAVETLICVYRKYMFVPHGA | inactive
EASNCFAIRHFENKFAVETLICAIGMSFGHYHHQ | 2.35
EASNCFAIRHFENKFAVETLICDAWADCGAKGTS | 5.47
EASNCFAIRHFENKFAVETLICLCRGMRKLTSRL | -0.595
EASNCFAIRHFENKFAVETLICVCSPRLSRCSLR | inactive
EASNCFAIRHFENKFAVETLICAAAVVVLAETRE | 7.98
EASNCFAIRHFENKFAVETLICGSFR | inactive
EASNCFAIRHFENKFAVETLICDRSEPLVRGG | inactive
EASNCFAIRHFENKFAVETLICVWTWLRVLYVAC | inactive
EASNCFAIRHFENKFAVETLICVRRFKCGSWRKR | inactive
EASNCFAIRHFENKFAVETLICVFECLLRRYLVQ | inactive
EASNCFAIRHFENKFAVETLICCANAIRRKMYQS | inactive
EASNCFAIRHFENKFAVETLICTYWSDERAPGAM | 0.768
EASNCFAIRHFENKFAVETLICWVTAASSVKSWR | 2.91
EASNCFAIRHFENKFAVETLICLLRA | inactive
EASNCFAIRHFENKFAVETLICGLKWRYCVCCNF | inactive
EASNCFAIRHFENKFAVETLICPADRRDVFPNLR | inactive
EASNCFAIRHFENKFAVETLICHCKVMA | inactive
EASNCFAIRHFENKFAVETLICFVSA | inactive
EASNCFAIRHFENKFAVETLICKFFDLFVRVAGH | inactive
EASNCFAIRHFENKFAVETLICLWHS | 5.34
EASNCFAIRHFENKFAVETLICRTDARWSYGRLG | inactive

Same assay, conditions: random library (experiment): 2

Sequence | amyloid nucleation score
EASNCFAIRHFENKFAVETLICLLQLTKRCMGLS | inactive
EASNCFAIRHFENKFAVETLICHTYLKLSCRLGF | -0.0677
EASNCFAIRHFENKFAVETLICADNNSFNGSAVN | inactive
EASNCFAIRHFENKFAVETLICNCEGLDDLTAHR | 3.27
EASNCFAIRHFENKFAVETLICGLFIGSVILGSG | 7.56
EASNCFAIRHFENKFAVETLICFMYVCLFNWRGW | -0.482
EASNCFAIRHFENKFAVETLICLLSIA | inactive
EASNCFAIRHFENKFAVETLICFIVLTPNVSVVI | inactive
EASNCFAIRHFENKFAVETLICVVHCEGSWHSDT | 3.98
EASNCFAIRHFENKFAVETLICVWTV | inactive
EASNCFAIRHFENKFAVETLICCWFYCKEIWTST | 0.821
EASNCFAIRHFENKFAVETLICGTG | inactive
EASNCFAIRHFENKFAVETLICYRIVMSWGVRHG | 1.87
EASNCFAIRHFENKFAVETLICRHWCE | inactive
EASNCFAIRHFENKFAVETLICCRSVSLSLFVGR | 6.35
